Consider three substances from PMC12592546.

Chains of the proteins cited; added tags and fusions are not shown.
UniProt Q92830: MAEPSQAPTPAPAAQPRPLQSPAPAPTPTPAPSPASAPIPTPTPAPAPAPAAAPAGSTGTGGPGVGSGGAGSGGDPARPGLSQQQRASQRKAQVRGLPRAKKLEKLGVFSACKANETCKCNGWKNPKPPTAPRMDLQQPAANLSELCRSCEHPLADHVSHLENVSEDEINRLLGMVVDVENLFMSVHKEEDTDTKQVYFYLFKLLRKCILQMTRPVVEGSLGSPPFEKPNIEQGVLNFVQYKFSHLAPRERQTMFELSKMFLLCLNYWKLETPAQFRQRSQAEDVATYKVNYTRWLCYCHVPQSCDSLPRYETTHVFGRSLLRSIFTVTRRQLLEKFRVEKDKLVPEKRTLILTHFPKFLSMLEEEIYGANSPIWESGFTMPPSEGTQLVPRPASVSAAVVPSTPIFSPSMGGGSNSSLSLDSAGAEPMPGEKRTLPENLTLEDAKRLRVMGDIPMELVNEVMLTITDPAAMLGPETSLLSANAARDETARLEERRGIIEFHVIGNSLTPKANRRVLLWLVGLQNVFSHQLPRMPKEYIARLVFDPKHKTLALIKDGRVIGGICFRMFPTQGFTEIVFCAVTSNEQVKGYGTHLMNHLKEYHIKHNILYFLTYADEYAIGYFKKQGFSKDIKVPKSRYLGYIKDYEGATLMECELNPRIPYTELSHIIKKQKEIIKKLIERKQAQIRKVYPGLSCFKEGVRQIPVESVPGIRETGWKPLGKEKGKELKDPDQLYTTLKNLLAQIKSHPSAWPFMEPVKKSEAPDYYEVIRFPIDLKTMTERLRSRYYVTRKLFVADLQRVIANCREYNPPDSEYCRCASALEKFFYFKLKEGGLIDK
UniProt Q06609: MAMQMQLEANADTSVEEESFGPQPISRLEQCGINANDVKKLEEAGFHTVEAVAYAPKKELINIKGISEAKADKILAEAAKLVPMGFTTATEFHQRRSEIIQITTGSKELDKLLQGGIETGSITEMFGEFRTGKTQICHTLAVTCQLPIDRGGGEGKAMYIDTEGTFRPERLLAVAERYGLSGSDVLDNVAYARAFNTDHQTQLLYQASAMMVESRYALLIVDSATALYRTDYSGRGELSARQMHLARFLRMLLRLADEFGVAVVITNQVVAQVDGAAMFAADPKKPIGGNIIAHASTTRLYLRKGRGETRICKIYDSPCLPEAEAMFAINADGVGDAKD
UniProt P08621: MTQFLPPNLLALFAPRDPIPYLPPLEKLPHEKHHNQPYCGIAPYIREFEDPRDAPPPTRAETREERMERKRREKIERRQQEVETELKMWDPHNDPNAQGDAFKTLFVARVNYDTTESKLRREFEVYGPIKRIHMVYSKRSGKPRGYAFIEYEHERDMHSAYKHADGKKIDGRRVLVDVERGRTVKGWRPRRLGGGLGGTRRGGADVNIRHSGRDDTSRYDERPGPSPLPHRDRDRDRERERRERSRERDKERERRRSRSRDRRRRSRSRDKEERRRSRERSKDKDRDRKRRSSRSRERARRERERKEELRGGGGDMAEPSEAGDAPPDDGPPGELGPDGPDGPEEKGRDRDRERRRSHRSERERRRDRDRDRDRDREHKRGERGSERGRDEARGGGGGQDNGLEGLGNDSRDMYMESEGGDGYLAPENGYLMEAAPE

These are yes or no findings as the source states them, for the method shown. In cells and extracts the contact can be indirect. Some results given as binding are weak or reduced against the parent protein; the word gives no strength. For part of these data: Where a sequence is shown, tags or fusion partners need not be part of it.

Test [1] deals with T1, serine/arginine-rich splicing factor 11 (SRSF11) (human (endogenous in Huh7 and LM3)) (UniProt Q05519).
T1 sequence: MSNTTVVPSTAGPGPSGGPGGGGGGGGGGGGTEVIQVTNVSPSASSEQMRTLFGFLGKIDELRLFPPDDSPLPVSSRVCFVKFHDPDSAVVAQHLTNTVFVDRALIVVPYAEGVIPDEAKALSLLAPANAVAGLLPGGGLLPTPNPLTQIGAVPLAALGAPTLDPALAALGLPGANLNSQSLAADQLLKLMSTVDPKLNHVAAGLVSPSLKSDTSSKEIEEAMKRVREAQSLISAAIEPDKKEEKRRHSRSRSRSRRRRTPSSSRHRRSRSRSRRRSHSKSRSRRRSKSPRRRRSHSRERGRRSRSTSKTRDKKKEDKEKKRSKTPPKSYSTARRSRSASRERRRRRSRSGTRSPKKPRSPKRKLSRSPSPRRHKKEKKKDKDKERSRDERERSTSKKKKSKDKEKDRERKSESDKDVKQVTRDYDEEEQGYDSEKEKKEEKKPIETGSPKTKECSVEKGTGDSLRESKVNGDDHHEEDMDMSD
As to the kind of experiment: co-IP; endogenous proteins in Huh7 and LM3 cells; IP with anti-SRSF11 and blot for KAT2A, or IP with anti-KAT2A and blot for SRSF11.

Test [2] addresses T1, serine/arginine-rich splicing factor 11 (SRSF11) (human (endogenous in Huh7 and LM3)). As to the kind of experiment: proximity ligation; in situ Proximity Ligation Assay (PLA), Supplementary Fig. 1g; cells not named in the text shown.
The target of another test is T2, HA-RAD52^△Ex10 (human) (UniProt P43351).
T2 sequence: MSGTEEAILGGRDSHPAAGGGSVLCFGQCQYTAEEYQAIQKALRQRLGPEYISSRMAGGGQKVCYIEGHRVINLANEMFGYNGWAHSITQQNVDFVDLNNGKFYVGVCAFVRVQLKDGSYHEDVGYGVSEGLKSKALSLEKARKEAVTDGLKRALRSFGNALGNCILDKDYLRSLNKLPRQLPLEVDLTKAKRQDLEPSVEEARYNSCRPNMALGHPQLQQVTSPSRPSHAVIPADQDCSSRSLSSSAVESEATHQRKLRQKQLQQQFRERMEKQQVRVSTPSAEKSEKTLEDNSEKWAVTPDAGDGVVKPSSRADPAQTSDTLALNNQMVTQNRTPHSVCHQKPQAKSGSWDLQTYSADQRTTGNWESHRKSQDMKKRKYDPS
Nature of the test: co-IP; Huh7 and LM3 cells overexpressing HA-RAD52 or HA-RAD52^△Ex10; IP with anti-HA or anti-RAD51; HA-RAD52^△Ex10 also with or without Flag-SRSF11.

A further test addresses T3, HA-RAD52 (human) (UniProt P43351).
T3 sequence: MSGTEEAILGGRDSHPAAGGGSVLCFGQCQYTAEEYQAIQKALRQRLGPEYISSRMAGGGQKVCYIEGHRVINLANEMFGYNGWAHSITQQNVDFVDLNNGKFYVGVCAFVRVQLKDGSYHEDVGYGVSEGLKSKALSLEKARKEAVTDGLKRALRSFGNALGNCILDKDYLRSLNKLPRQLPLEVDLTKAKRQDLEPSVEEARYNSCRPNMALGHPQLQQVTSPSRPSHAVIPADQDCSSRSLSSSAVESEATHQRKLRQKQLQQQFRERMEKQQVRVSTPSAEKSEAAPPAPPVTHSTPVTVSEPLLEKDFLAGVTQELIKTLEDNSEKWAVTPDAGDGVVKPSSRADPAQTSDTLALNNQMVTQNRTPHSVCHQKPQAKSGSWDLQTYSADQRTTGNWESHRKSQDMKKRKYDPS
Described as above.

In test [3] the target is T4, RAD52 (endogenous) (human (endogenous in Huh7)) (UniProt P43351).
T4 sequence: T3 sequence
As to the kind of experiment: co-IP; endogenous proteins; IP with anti-RAD52, blot for RAD51; also in Huh7 cells with siRAD52^Ex10, Flag-SRSF11, siSRSF11 or siKAT2A (binding told as more or less).

The target of a further test is T5, Flag-SRSF11 (UniProt Q05519).
T5 sequence: T1 sequence
Nature of the test: co-IP; Huh7 cells transfected with Flag-SRSF11; IP with anti-Flag, blots for U2AF2, PRPF8 and SNRNP70; also with siSRSF11, siKAT2A or HA-KAT2A (binding told as more or less).

On to “K(lysine) acetyltransferase 2A (KAT2A) (from UniProt Q92830 1-837) (enzyme)”, for which the binding entry in test [1] and in test [2] was “binds” throughout.
For the substance “RAD51 (endogenous) (from UniProt Q06609 1-339)”, the binding result is “no binding” with HA-RAD52^△Ex10 (human), “binds” with HA-RAD52 (human) and “binds” in test [3].
With SNRNP70 (from UniProt P08621 1-437), the binding entry with Flag-SRSF11 is “binds”.
